# Measurements as given in ChEMBL document CHEMBL4888484, “Replenishing the malaria drug discovery pipeline: Screening and hit evaluation of the MMV Hit Generation Library 1 (HGL1) against asexual blood stage Plasmodium falciparum ,using a nano luciferase reporter read-out” (2022).
# In all, about 150,000 compounds went through this assay and about 540 (0.36%) showed an effect of 50% or more. Some of the results follow.
# Tested on: Plasmodium falciparum
# Assay: Primary screen in NF54 nanoGlo assay, in single point, at 2uM, 72h; a lower Z score goes with more inhibition
# Format: functional, Erythrocyte
# Conditions: timepoint 72 hour
Structure (SMILES),% Inhibition [%],Z score
O=C(c1cscn1)N1CC[C@H](n2cc(COCC3CC3)nn2)C1,-13,1.92
CCOc1cc(N2CC[C@H](C(=O)Nc3cn[nH]c3)C2)nc(C)n1,9,-1.73
CC(C)=CCO[C@H]1COCC[C@@H]1NC(=O)c1nnc2n1CCCCC2,-8,0.95
CCCN(CC(=O)N(Cc1cccc(Cl)c1)C1CCN(C(=O)C(C)C)CC1)S(=O)(=O)c1ccc(C)cc1,-7,1.03
CC(=O)c1ccc(F)cc1-c1cccc(C(=O)NC2(CO)CCCCC2)c1,6,-0.6
COc1ccc(C(=O)N2CCN=C2N2CCCCC2)cc1,-7,0.71
Cc1ccc([C@H]2CN(C(=O)c3ccc(-n4cnnn4)cc3)C[C@@H]2N(C)C)cc1,1,-0.08
CC(C)C[C@@]1(CO)N[C@H](c2cccc3c2OC(C)(C)C3)[C@@H]2CN(C)C[C@@H]21,1,-0.17
CCOc1nc(-c2ccc(F)cc2)n(-c2cccc(NC(=O)c3cccs3)c2)n1,6,-0.71
COc1cc(OC)cc([C@@H](CC(=O)NCCN2CCCCC2)c2cn(Cc3ccc(F)cc3)c3ccccc23)c1,0,0.04
O=C(NCC(=O)N1CCC(Oc2cccc3cccnc23)CC1)OCc1ccccc1,-11,2.02
N#Cc1cccc(C(=O)N2CCCn3nc(-c4cccs4)cc3C2)c1,-20,3.71
CCn1nc(C(=O)N2CCN([C@@H](C)c3ccccc3)CC2)cc1-c1cccc(Cl)c1,-8,1.28
C[C@@H](Cc1cc2ccccc2o1)NC(=O)c1cccn(C)c1=O,-18,3.13
O=C(NCc1ccc(S(=O)(=O)N2CCOCC2)s1)c1ccc(F)c(Cl)c1,-8,0.83
Cc1ccc([C@@]2(C(=O)NC(C)(C)C(=O)O)CC2(C)C)cc1,-1,0.09
S=c1oc2ccccc2n1CN1CCN(c2ccccn2)CC1,-3,0.47
CCOCC1(CNC(=O)c2cc(=O)cc(C)[nH]2)CC1,-11,1.18
CC(C)C(=O)N1CC(C)(C)c2cc(S(=O)(=O)N[C@H]3CCCc4ccccc43)ccc21,0,0.01
Cc1cc(F)ccc1-n1cc(C(=O)N(C)CCCn2ccnc2C)nn1,-12,1.55
CC(C)C[C@]1(C)NC(=O)N(CC(F)F)C1=O,-4,0.37
Cc1ccc(C(=O)O)c(N2Cc3cnc(-c4ccccc4)nc3C2)n1,1,-0.12
CC[C@H](C)CNC(=O)c1ccccc1N1CCC(NC(=O)c2ccco2)CC1,3,-0.27
Cc1ccc(CN(CCN(C)C)C(=O)c2cn(C)c3ccccc23)s1,-8,1.02
CN1CCC(NC(=O)NCC2(Cc3ccccc3)CCC2)CC1,-16,1.66
C[C@H]1[C@@H](NC(=O)[C@@H]2CC2(C)C)CCS1(=O)=O,-10,1.28

Structure (SMILES),% Inhibition [%],Z score
COC(=O)c1ccc(CNCCc2ccncc2C)n1C,-1,0.14
O=C(c1cc[nH]n1)N1CCc2sccc2C1,-17,2.68
CN(CC(=O)NC1CCCCCC1)c1nnc(N2CCCC2=O)s1,-8,1.11
CCC(CC)N1C[C@@H](C(=O)NCc2cccnc2-n2ccnc2)CC1=O,4,-0.64
Cc1ccc(C)c(C2CCCN2C(=O)C2CC3CCC2O3)c1 (centres undefined),-6,0.77
O=C(c1cnn2ccccc12)N(CCN1CCOCC1)Cc1ccco1,-5,0.79
CCOC(=O)Cc1csc(NC(=O)c2sc(C)nc2C(C)C)n1,-3,0.33
CC[C@H](NC(=O)Cn1cc(Cl)c(C)n1)c1ncnn1C,-10,0.91
CCN(c1ccncc1)S(=O)(=O)[C@H]1CCCN(C(=O)C2CCCC2)C1,-7,0.86
Cc1cc(-c2nc(CC(C)C)nn2C(C)(C)C)nn1C,0,-0.05
COC(=O)C1C2CCC(C(=O)OC)(CC2)C1C(=O)Nc1ccccc1 (centres undefined),-14,1.86
Cc1ncc(S(C)(=O)=O)c(N(C)Cc2cc(C3CC3)[nH]n2)n1,-8,0.81
O=C(NC[C@H]1COc2ccccc2O1)c1ccc(S(=O)(=O)N2CCCCCC2)cc1,-1,0.11
CCN(c1ccccc1)S(=O)(=O)CC1CN(S(C)(=O)=O)C1,-5,0.73
CC[C@H](Nc1ncnc2c1c(C)nn2C)c1ccnn1C,-13,1.26
C[C@H](NC(=O)c1ccccc1C1(C)CC1)c1cscn1,14,-1.9
C[C@@]1(C(=O)N2CCC(n3cc(CN4CCCC4)nn3)CC2)CCCO1,-18,1.59
C[C@H]1CN(c2nnc(-c3ccccc3Cl)s2)CCS1(=O)=O,-12,1.72
O=C(C1c2ccccc2Oc2ccccc21)N1CCCN(C(=O)C2c3ccccc3Oc3ccccc32)CC1,-3,0.39
COCCNc1nc(-c2cc(F)cc(F)c2)cc(-c2c(C)nn(C)c2C)n1,-8,1.09
Cc1cc(CC(=O)N[C@H]2CCCN(Cc3cccc(O)c3)C2)on1,5,-1.09
Cc1noc(C2CCN(C(=O)c3cnc4sc(C)cn4c3=O)CC2)n1,-8,1.07
CCC[C@H](C)N1CC2(CCN(C(=O)c3cccc4nccnc34)CC2)OC1=O,-1,0.25
CC(Nc1ccncc1NC(=O)c1cccc(C#N)c1)C1CCCO1 (centres undefined),-9,1.84
C[C@H](NC1(c2ccccc2)CCCC1)c1cncc(F)c1,-6,1.17
COc1ccc(-c2noc(-c3ccc(N(C)Cc4cnn(C)c4)nc3)n2)cc1,-6,0.73
